According to patent US12459974B2, “Bicyclic peptide ligands specific for Nectin-4” (priority 2018, dated 2025):
Not every detail of the peptide structures is certain; ends, links or a residue may be inferred. *1 amine or outer side, *2 acyl side, *3 side chain or, on linkers, in order; H or OH if unused. Where a SMILES comes first, the peptide text is derived from it. Bridges are numbered along the chain shown (N, C = ends). TATA = O=C(CC[*:1])N1CN(C(=O)CC[*:2])CN(C(=O)CC[*:3])C1

Each molecule was assayed against T1, human Nectin-4 (Homo sapiens, UniProt Q96NY8) (assay: Nectin-4 direct binding assay (fluorescence polarisation)). Conditions: fluorescently tagged peptide, TATA scaffold.
T1 sequence (Q96NY8 32-510): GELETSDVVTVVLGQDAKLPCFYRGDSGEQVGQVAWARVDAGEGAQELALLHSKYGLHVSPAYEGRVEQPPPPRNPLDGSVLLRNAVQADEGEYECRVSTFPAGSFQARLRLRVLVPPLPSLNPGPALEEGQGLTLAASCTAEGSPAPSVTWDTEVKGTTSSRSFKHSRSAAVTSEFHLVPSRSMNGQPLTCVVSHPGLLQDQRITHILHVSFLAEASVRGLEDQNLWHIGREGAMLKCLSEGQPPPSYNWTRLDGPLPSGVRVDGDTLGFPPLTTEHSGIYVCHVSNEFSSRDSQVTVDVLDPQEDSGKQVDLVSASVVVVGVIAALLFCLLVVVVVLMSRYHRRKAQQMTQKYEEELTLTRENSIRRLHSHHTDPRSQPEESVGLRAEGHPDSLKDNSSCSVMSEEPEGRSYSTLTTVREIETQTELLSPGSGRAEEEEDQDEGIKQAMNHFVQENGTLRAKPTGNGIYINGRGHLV
Procedure: Affinity of the peptides of the invention for human Nectin-4 (Ki) was determined using a fluorescence polarisation assay, in accordance with the methods disclosed in WO 2016/067035. Peptides of the invention with a fluorescent tag (either fluorescein, SIGMA or Alexa Fluor488™, Fisher Scientific) were diluted to 2.5 nM in PBS with 0.01% tween 20 or 50 mM HEPES with 100 mM NaCl and 0.01% tween pH 7.4 (both referred to as assay buffer). This was combined with a titration of protein in the same assay buffer as the peptide to give 1 nM peptide in a total volume of 25 μL in a black walled and bottomed low bind low volume 384 well plates, typically 5 μL assay buffer, 10 μL protein then 10 μL fluorescent peptide. […] Measurements were conducted on a BMG PHERAstar FS equipped with an “FP 485 520 520” optic module which excites at 485 nm and detects parallel and perpendicular emission at 520 nm. The PHERAstar FS was set at 25° C. with 200 flashes per well and a positioning delay of 0.1 second, with each well measured at 5 to 10 minute intervals for 60 minutes. The gain used for analysis was determined for each tracer at the end of the 60 minutes where there was no protein in the well. Data was analysed using Systat Sigmaplot version 12.0. mP values were fit to a user defined quadratic equation to generate a Kd value: f=ymin+(ymax−ymin)/Lig*((x+Lig+Kd)/2-sqrt((((x+Lig+Kd)/2)^2)−(Lig*x))). “Lig” was a defined value of the concentration of tracer used.

Row | SMILES | Ki [nM]
1 | CC[C@H](C)[C@@H]1NC(=O)[C@H](CCCNC(=N)N)NC(=O)[C@H](C)NC(=O)[C@@H]2CSCCC(=O)N3CN(CN(C3)C(=O)CCSC[C@@H](C(=O)N[C@@H](C)C(N)=O)NC1=O)C(=O)CCSC[C@H](NC(=O)[C@H](C)N)C(=O)N[C@@H](Cc1c[nH]c3ccccc13)C(=O)N1CCC[C@H]1C(=O)N[C@@H](CC(C)C)C(=O)N[C@@H](CC(=O)O)C(=O)N[C@@H](CO)C(=O)N[C@@H](Cc1ccc(O)cc1)C(=O)N[C@@H](Cc1c[nH]c3ccccc13)C(=O)N2 [BCY488, A-(SEQ ID NO: 31)-A] (H-ACWPLDSYWCARICA-NH2; linker 2-10-14 via TATA) | 208
2 | CC(C)C[C@@H]1NC(=O)[C@H]([C@@H](C)O)NC(=O)[C@H](C(C)C)NC(=O)[C@H](Cc2c[nH]c3ccccc23)NC(=O)[C@@H]2CSCCC(=O)N3CN(CN(C3)C(=O)CCSC[C@@H](C(=O)N[C@@H](CO)C(=O)N[C@@H](CCCNC(=N)N)C(=O)N[C@@H](Cc3ccccc3)C(N)=O)NC(=O)[C@H](Cc3c[nH]cn3)NC(=O)CNC1=O)C(=O)CCSC[C@H](NC(=O)[C@H](C)N)C(=O)N[C@@H](C(C)C)C(=O)N[C@@H]([C@@H](C)O)C(=O)N[C@@H]([C@@H](C)O)C(=O)N[C@@H](CO)C(=O)N[C@@H](Cc1ccc(O)cc1)C(=O)N[C@@H](CC(=O)O)C(=O)N2 [BCY3406, A-(SEQ ID NO: 37)-SRF] (H-ACVTTSYDCWVTLGHCSRF-NH2; linker 2-9-16 via TATA) | 30
3 | CC[C@H](C)[C@@H]1NC(=O)[C@@H]2CCCN2C(=O)[C@H]([C@@H](C)O)NC(=O)[C@H](CO)NC(=O)[C@H](Cc2c[nH]c3ccccc23)NC(=O)[C@H](CC(N)=O)NC(=O)[C@H](CCCCNC(=N)N)NC(=O)[C@H](CCSC)NC(=O)[C@@H]2CSCCC(=O)N3CN(CN(C3)C(=O)CCSC[C@H](NC(=O)c3ccc4c(c3)C(=O)OC43c4ccc(O)cc4Oc4cc(O)ccc43)C(=O)N3CCC[C@H]3C(=O)N[C@@H](Cc3ccccc3)C(=O)N[C@H](CC(=O)O)C(=O)N2)C(=O)CCSC[C@@H](C(N)=O)NC(=O)[C@H](Cc2c[nH]c3ccccc23)NC1=O [BCY8208, (Carboxyfluorescein) (SEQ ID NO: 115)] | 745
